Growth inhibition call data for 30 molecules are collected here from the antibiotic and cytotoxicity screens of Wong et al. (2023).

Some of the results follow.

The assay deals with S. aureus RN4220. Put plainly: growth inhibition call (relative growth <= 0.2). Conditions: 50 µM.
For the molecule `COc1ccc(CN(C)C[C@H]2OCCCC[C@@H](C)Oc3ccc(NC(=O)c4ccccc4)cc3C(=O)N([C@H](C)CO)C[C@H]2C)cc1`, the growth inhibition call was “inactive”.
`CC(C)(C)C(=O)C[n+]1ccc(C(N)=O)cc1`: the growth inhibition call is “inactive”.
Regarding `Cl.[LiH]`, the growth inhibition call was “inactive”.
As for `O=C(CN1CCOCC1)N[C@@H]1CC[C@@H](CCn2cc(C3CCCC3)nn2)O[C@@H]1CO`, the entry is “inactive”; as for `COCCOC(=O)N1C(=O)[C@@]2(c3cc(C#CC4=CCCCC4)ccc31)[C@H](C(=O)N1CCCCCCC1)[C@H]1C(=O)O[C@H](c3ccccc3)[C@H](c3ccccc3)N1[C@@H]2c1ccc(OCCO)cc1`, “inactive”.
As for `C[C@@H]1CN([C@@H](C)CO)C(=O)c2cccc(NS(C)(=O)=O)c2O[C@H]1CN(C)S(=O)(=O)c1ccc(Cl)cc1`, the entry is “inactive”; as for `C[C@@H]1CN([C@H](C)CO)C(=O)Cc2cc(NC(=O)Nc3cccc4ccccc34)ccc2O[C@H]1CN(C)C(=O)Nc1ccc2c(c1)OCO2`, “inactive”; as for `CN1C(=O)c2cc(NC(=O)Cc3cccs3)ccc2OC[C@H]2O[C@@H](CC(=O)NCCc3ccncc3)CC[C@@H]21`, “inactive”.
As for `Nc1nc(S)c2nc[nH]c2n1`, the entry is “inactive”.
For `O=C(O)CSCC(=O)NC1CCSC1=O` (stereo not given), the growth inhibition call is “inactive”.
Take `Cc1noc(C)c1S(=O)(=O)Nc1ccc2c(c1)CC(=O)N([C@H](C)CO)C[C@H](C)[C@H](CN(C)S(=O)(=O)c1ccc(F)cc1)O2`: the growth inhibition call was “inactive”.
As for `CC(C)NC(=O)N(C)C[C@@H]1Oc2c(NS(=O)(=O)c3cn(C)cn3)cccc2C(=O)N([C@H](C)CO)C[C@@H]1C`, the entry is “inactive”; as for `C[C@H](CO)N1C[C@H](C)[C@H](CN(C)C(=O)CN(C)C)Oc2cc(-c3cncnc3)ccc2S1(=O)=O`, “inactive”; as for `C[C@@H]1CN([C@H](C)CO)C(=O)Cc2cc(NS(=O)(=O)c3cccs3)ccc2O[C@@H]1CN(C)S(=O)(=O)c1cn(C)cn1`, “inactive”.
As for `C[C@H]1CN([C@@H](C)CO)C(=O)c2cc(-c3cccnc3)cnc2O[C@@H]1CN(C)Cc1ccc(-c2ccccc2)cc1`, the entry is “inactive”.
Take `C[C@H](CO)N1C[C@H](C)[C@@H](CN(C)S(=O)(=O)c2cn(C)cn2)Oc2cc(C#Cc3ccccc3)ccc2S1(=O)=O`: the growth inhibition call is “inactive”.
With `CCCCCCOC(=O)N=C(N)c1ccc(NCc2nc3cc(C(=O)N(CCC(=O)OCC)c4ccccn4)ccc3n2C)cc1.CS(=O)(=O)O`, the growth inhibition call is “inactive”.
`C[C@H](CO)N1C[C@H](C)[C@H](CN(C)C(=O)Nc2cccc3ccccc23)Oc2ccc(NC(=O)Nc3ccc(F)cc3)cc2CC1=O`: the growth inhibition call was “inactive”.
As for `C[C@@H]1CN([C@@H](C)CO)S(=O)(=O)c2ccc(C#Cc3ccc(F)cc3)cc2O[C@@H]1CN(C)CC1CC1`, the entry is “inactive”; as for `O=C(C1=C(O)C(=O)N(c2nccs2)[C@H]1c1cccc(Oc2ccccc2)c1)c1ccc2c(c1)OCCO2`, “inactive”; as for `C[C@H](CO)N1C[C@H](C)[C@@H](CN(C)S(=O)(=O)c2cn(C)cn2)OCc2cnnn2CCCC1=O`, “inactive”.
For `COc1ccc(S(=O)(=O)Nc2ccc3c(c2)CC(=O)N([C@@H](C)CO)C[C@@H](C)[C@H](CN(C)S(C)(=O)=O)O3)cc1` the value was “inactive”; for `CCCN(C)C[C@H]1OCCCC[C@@H](C)Oc2ccc(NC(=O)CCC(F)(F)F)cc2C(=O)N([C@@H](C)CO)C[C@H]1C`, “inactive”; for `C[C@@H]1CCCCO[C@H](CN(C)Cc2ccccc2)[C@@H](C)CN([C@H](C)CO)C(=O)c2cc(NC(=O)Nc3ccc(C(F)(F)F)cc3)ccc2O1`, “inactive”.
For `C[C@@H]1CCCCO[C@H](CN(C)C(=O)CCC(F)(F)F)[C@H](C)CN([C@@H](C)CO)C(=O)c2cc(NC(=O)CCC(F)(F)F)ccc2O1` the value was “inactive”.
Turning to `CC(C)NC(=O)Nc1ccc2c(c1)C(=O)N([C@H](C)CO)C[C@H](C)[C@H](CN(C)CC1CCCCC1)OCCCC[C@@H](C)O2`, the growth inhibition call was “inactive”.
As to `C[C@H](CO)N1C[C@H](C)[C@H](CN(C)C(=O)Nc2ccc3c(c2)OCO3)Oc2c(NS(C)(=O)=O)cccc2C1=O`, the growth inhibition call is “inactive”.
For `Cc1noc(C)c1NC(=O)N(C)C[C@H]1Oc2c(NC(=O)c3ccc(-c4nccs4)cc3)cccc2C(=O)N([C@@H](C)CO)C[C@@H]1C` the value was “inactive”; for `C[C@@H]1CN([C@@H](C)CO)C(=O)c2cc(NC(=O)Nc3ccc(C(F)(F)F)cc3)ccc2O[C@@H](C)CCCCO[C@H]1CN(C)S(=O)(=O)c1ccc(F)cc1`, “inactive”; for `C[C@@H]1CN([C@H](C)CO)C(=O)Cc2cc(NS(C)(=O)=O)ccc2O[C@H]1CN(C)S(=O)(=O)c1cccs1`, “inactive”.
